Inconclusive means that the source gave no clear call. Such entries were picked first, then a sample of the others. Where a call stands in place of a potency, no number is given. Potencies of inconclusive entries are doubtful fits and often do not repeat. Activity calls are given as the source filed them. Unless noted, calls follow the shape of the dose curve; as a rule, active = well fitted cell-killing curve with a large enough effect in the repeat runs; inconclusive = weak or mixed curves; inactive = no such curve, though single readings can be large or run the other way.
Tested on: not listed separately
Test: qHTS assay to identify small molecule antagonists of the androgen receptor (AR) signaling pathway - cell viability counter screen (AID 743033; also: nearly all actives have a fitted effect of over 45% in size)
Details: AR-bla HEK293 viability, CellTiter-Glo luminescence, 16 h; activity change, negative = cytotoxicity: at 58.5 µM (top of the series) unless noted
Potency is read from the fitted curve at half-maximal effect; tags tell the direction and shape of the fitted curve.

SMILES | Potency
CCCc1ccc(O)c(OC)c1 | inactive
CC(=O)NCCCS(=O)(=O)O | inactive
O=C(O)c1cccc(Cl)c1Cl | inactive
CCN(CC)C(=O)Nc1ccc(OCC(O)CNC(C)(C)C)c(C(C)=O)c1 (configuration not stated) | inconclusive: 0.0067 µM [cytotoxic, full curve, poor fit]
NCCCN(CCO)CCO | inconclusive: 49 µM [rising, partial curve, poor fit]
CC[C@H](NC(C)C)[C@H](O)c1ccc(O)c2[nH]c(=O)ccc12 | inactive
NNc1nncc2ccccc12 | inconclusive: 2.88 µM [cytotoxic, full curve, poor fit]
NS(=O)(=O)c1cc(-c2nn[nH]n2)c(NCc2cccs2)cc1Cl | inactive
CC(C)C1OCCN1CCOC(=O)NCCCCCCNC(=O)OCCN1CCOC1C(C)C (configuration not stated) | inconclusive: 1.95 µM [cytotoxic, full curve]
C#CCN[C@@H]1CCc2ccccc21 | inconclusive: 0.0379 µM [cytotoxic, full curve, poor fit]
C[C@@H](c1ncncc1F)C(O)(Cn1cncn1)c1ccc(F)cc1F (some centres not stated) | inactive
Cc1ccc2ncccc2c1 | inactive

Target: Androgen receptor (Homo sapiens) (UniProt P10275)
UniProt P10275, sequence (P10275 whole entry, looked up): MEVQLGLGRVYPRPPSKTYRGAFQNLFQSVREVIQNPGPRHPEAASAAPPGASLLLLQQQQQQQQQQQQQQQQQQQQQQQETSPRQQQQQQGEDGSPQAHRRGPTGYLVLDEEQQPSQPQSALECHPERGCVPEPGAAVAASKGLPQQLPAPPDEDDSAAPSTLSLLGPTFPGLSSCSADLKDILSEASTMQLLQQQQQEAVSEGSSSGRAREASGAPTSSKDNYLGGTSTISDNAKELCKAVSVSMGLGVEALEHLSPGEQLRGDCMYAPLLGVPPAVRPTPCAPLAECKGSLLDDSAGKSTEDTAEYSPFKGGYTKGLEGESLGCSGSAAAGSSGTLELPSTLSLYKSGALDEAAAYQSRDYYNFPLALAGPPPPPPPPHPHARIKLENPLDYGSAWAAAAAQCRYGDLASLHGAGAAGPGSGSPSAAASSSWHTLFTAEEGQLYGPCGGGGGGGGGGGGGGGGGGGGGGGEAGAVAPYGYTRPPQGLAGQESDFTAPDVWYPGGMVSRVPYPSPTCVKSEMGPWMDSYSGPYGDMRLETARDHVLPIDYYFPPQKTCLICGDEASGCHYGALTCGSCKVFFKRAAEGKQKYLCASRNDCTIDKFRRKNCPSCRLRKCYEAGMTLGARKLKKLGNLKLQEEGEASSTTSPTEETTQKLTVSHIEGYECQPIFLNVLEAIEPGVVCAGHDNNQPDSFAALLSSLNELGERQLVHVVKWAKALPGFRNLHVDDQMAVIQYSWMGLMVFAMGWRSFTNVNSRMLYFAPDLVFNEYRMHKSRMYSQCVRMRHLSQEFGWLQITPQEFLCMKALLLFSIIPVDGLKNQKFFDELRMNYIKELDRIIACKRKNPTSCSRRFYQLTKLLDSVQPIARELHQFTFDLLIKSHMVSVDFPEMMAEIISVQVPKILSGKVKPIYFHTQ
Test: qHTS assay to identify small molecule antagonists of the androgen receptor (AR) signaling pathway (AID 743035; active = well fitted inhibition curve with a large enough effect in the signal ratio in the repeat runs, not every such curve was filed as active; inconclusive = weak or mixed curves, or effect the other way; inactive = no such curve, though single readings can be large or run the other way; the % refers to the signal ratio)
Details: HEK293 AR-UAS-bla, R1881-stimulated, beta-lactamase FRET, 16 h; activity change, negative = inhibition: at 58.5 µM (top of the series) unless noted
Method in brief: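 HEK293 cells stably carrying UAS-beta-lactamase reporter, 2,000/well, given compounds plus R1881 agonist and incubated 16 h at 37C. LiveBLAzer B/G FRET substrate then added for 2 h at room temperature before fluorescence reading.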

SMILES | activity change, negative = inhibition | Potency
NCCCN1CCOCC1 | inconclusive: 8.5% | –
C=C(C)C(=O)OCCCC | – | inactive
COc1ccccc1OC(=O)Oc1ccccc1OC | inconclusive: -18.7% | –
CC(=O)Oc1ccc(C)cc1 | – | inactive
Cc1nc(-c2ccccn2)ncc1C(=O)Nn1cc(C)c2cc(F)ccc21 | – | active: 49 µM
OC1CCCCC1c1ccccc1 (configuration not stated) | inconclusive: 4.43% | –
CCCCCC(=O)O | – | inactive
O=C1CCCCCCCCCCCC(=O)OCCO1 | inconclusive: -17.3% | –
Cc1ccc(-c2ncc(Cl)cc2-c2ccc(S(C)(=O)=O)cc2)cn1 | – | inactive
CC(C)CC(=O)CC(C)CC(C)C (configuration not stated) | – | inactive
OCCCO | inconclusive: 15.3% [at 78.9 µM] | –
NCCCN(CCO)CCO | inconclusive: -27% | –
O=C(OC1C[C@H]2CC[C@@H](C1)[N+]21CCCC1)C(O)(c1ccccc1)c1ccccc1 (some centres not stated) | – | inconclusive: 10.7 µM [rising, single point]
CN1C(=O)c2ccc([N+](=O)[O-])cc2C1=O | – | inactive
COC(=O)C(C)O (configuration not stated) | – | inactive
O=C(Nc1ccc(Cl)c(Cl)c1)C1CC1 | – | active: 19 µM
CCOC(=O)COC(=O)c1cc(Oc2ccc(C(F)(F)F)cc2Cl)ccc1[N+](=O)[O-] | – | inconclusive: 54.9 µM [falling, single point]
CC(C)C1OCCN1CCOC(=O)NCCCCCCNC(=O)OCCN1CCOC1C(C)C (configuration not stated) | – | inactive
C[C@@H](c1ncncc1F)C(O)(Cn1cncn1)c1ccc(F)cc1F (some centres not stated) | – | inactive
CC(C)(O)CCC(C)(C)O | inconclusive: 0.858% [at 78.9 µM] | –

— PubChem BioAssay (Tox21)
